# Data as given in publication PMC11507940 (bioRxiv, 2024).
# B1: Human recombinant fibroblast activation protein alpha (enzyme)
# chain: not shown
# modifications: glycosylated (NAG modelled in the cryo-EM structures)
# Biological target: the molecule itself
# Test: mass photometry
protein,measurement,value
B1,stoichiometry N,2
